Test results taken from article PMC11995724, “Antibiotic target discovery by integrated phenotypic and activity-based profiling of electrophilic fragments” (Cell chemical biology, 2025).
In all, about 3,200 compounds went through this assay and about 75 (2%) showed an effect of 50% or more. Some of the results follow.

Each compound was assayed on T1, S. aureus MSSA476. Conditions: relative growth, OD600, TSB; 25 µM; inhibitor.
T1 construct: MSSA476
Parameters: species or system S. aureus MSSA476 (TSB) or V. cholerae SAD30 (LB); 384-well bacterial growth screen at 25 uM, OD600 relative to DMSO control

Structure (SMILES)	% of control remaining
Cc1ccc(C=C(C#N)C(=O)Nc2ccccc2C)cc1 [8-G16, 2-cyano-N-(2-methylphenyl)-3-(4-methylphenyl)prop-2-enamide]	109.212%
C=CC(=O)N1CCC(C(=O)N2Cc3ccc([N+](=O)[O-])cc3C2)CC1 [2-F04, 1-[4-(5-nitro-2,3-dihydro-1H-isoindole-2-carbonyl)piperidin-1-yl]prop-2-en-1-one]	89.121%
Cc1ccc(C2=NN(C(=O)CCl)C(c3cccs3)C2)cc1 (stereo not shown) [4-O22, 2-chloro-1-[3-(4-methylphenyl)-5-(thiophen-2-yl)-4,5-dihydro-1H-pyrazol-1-yl]ethan-1-one]	88.0419%
O=C(CCl)NCCc1c(F)cccc1F [5-F20, 2-chloro-N-[2-(2,6-difluorophenyl)ethyl]acetamide]	114.026%
COC(=O)[C@H]1[C@@H](C(=O)CCl)C1(C)C (racemic) [10-A11, rac-methyl (1R,3S)-3-(2-chloroacetyl)-2,2-dimethylcyclopropane-1-carboxylate]	136.875%
C=CC(=O)NCc1ccc(C(=O)N2CCC(c3nnc(C)o3)CC2)cc1 [2-M18, N-({4-[4-(5-methyl-1,3,4-oxadiazol-2-yl)piperidine-1-carbonyl]phenyl}methyl)prop-2-enamide]	99.913%
CC(Cl)C(=O)N1CC(Oc2ccc(C#N)cc2)C1 (stereo not shown) [6-J15, 4-{[1-(2-chloropropanoyl)azetidin-3-yl]oxy}benzonitrile]	90.4878%
Cc1cccc(C)c1NC(=O)CN(C)C(=O)CCl [5-A13, 2-chloro-N-{[(2,6-dimethylphenyl)carbamoyl]methyl}-N-methylacetamide]	104.189%
Cc1ccc(C)c(CN(CCO)C(=O)CCl)c1 [5-K20, 2-chloro-N-[(2,5-dimethylphenyl)methyl]-N-(2-hydroxyethyl)acetamide]	91.439%
N#CC(=Cc1ccsc1)C(=O)NCc1ccc(Cl)cc1 [8-I15, N-[(4-chlorophenyl)methyl]-2-cyano-3-(thiophen-3-yl)prop-2-enamide]	119.834%
N#CC(=Cc1cccc2ccccc12)C(=O)Nc1ccccc1Cl [8-K11, N-(2-chlorophenyl)-2-cyano-3-(naphthalen-1-yl)prop-2-enamide]	96.5975%
Cc1cc(NC(=O)CCl)n(-c2ccccc2)n1 [4-G05, 2-chloro-N-(3-methyl-1-phenyl-1H-pyrazol-5-yl)acetamide]	95.6646%
CN1C(=C(C#N)C(=O)CCl)Sc2ccccc21 [10-G08, 4-chloro-2-(3-methyl-2,3-dihydro-1,3-benzothiazol-2-ylidene)-3-oxobutanenitrile]	117.188%
O=C(CCl)Nc1ccc(C(=O)O)cc1[N+](=O)[O-] [4-C21, 4-(2-chloroacetamido)-3-nitrobenzoic acid]	114.721%
COCCNC(=O)C(C#N)=Cc1cccc2ccccc12 [8-L12, 2-cyano-N-(2-methoxyethyl)-3-(naphthalen-1-yl)prop-2-enamide]	99.2531%
C=CC(=O)N1CCOC(c2ccccc2)C1 (stereo not shown) [2-I07, 1-(2-phenylmorpholin-4-yl)prop-2-en-1-one]	102.002%
C=CC(=O)N1CC2(CCCC2)CC1CO (stereo not shown) [2-I19, 1-[3-(hydroxymethyl)-2-azaspiro[4.4]nonan-2-yl]prop-2-en-1-one]	89.4691%
O=C(CCl)N1CCCC1c1ccccc1 (stereo not shown) [6-M19, 2-chloro-1-(2-phenylpyrrolidin-1-yl)ethan-1-one]	103.463%
O=C(CCl)Nc1ccc(Cl)c(S(=O)(=O)N2CCOCC2)c1 [6-K13, 2-chloro-N-[4-chloro-3-(morpholine-4-sulfonyl)phenyl]acetamide]	104.146%
Cc1c(C#N)c(NC(=O)CCl)n(Cc2cccs2)c1C [4-C04, 2-chloro-N-{3-cyano-4,5-dimethyl-1-[(thiophen-2-yl)methyl]-1H-pyrrol-2-yl}acetamide]	108.623%
O=C(CCl)N1N=C(c2ccccc2)CC1c1ccc2nccnc2c1 (stereo not shown) [4-A22, 2-chloro-1-[3-phenyl-5-(quinoxalin-6-yl)-4,5-dihydro-1H-pyrazol-1-yl]ethan-1-one]	113.959%
C=CC(=O)NCCC(=O)N1CCC(O)(c2c(F)cccc2F)CC1 [2-B11, N-{3-[4-(2,6-difluorophenyl)-4-hydroxypiperidin-1-yl]-3-oxopropyl}prop-2-enamide]	144.473%
CCc1nc(C2CCCN2C(=O)CCl)no1 (stereo not shown) [5-C08, 2-chloro-1-[2-(5-ethyl-1,2,4-oxadiazol-3-yl)pyrrolidin-1-yl]ethan-1-one]	111.84%
N#CC(=Cc1cn(-c2ccccc2)nc1-c1ccccc1Cl)C(N)=O [8-N18, 3-[3-(2-chlorophenyl)-1-phenyl-1H-pyrazol-4-yl]-2-cyanoprop-2-enamide]	131.12%
Cl.O=C(CCl)NCc1ccccc1CN1CCOCC1 [5-L06, 2-chloro-N-({2-[(morpholin-4-yl)methyl]phenyl}methyl)acetamide hydrochloride]	105.282%
CCn1nc(C)c(CNC(=O)CCl)c1C [7-P10, 2-chloro-N-[(1-ethyl-3,5-dimethyl-1H-pyrazol-4-yl)methyl]acetamide]	96.3893%
CC(Cl)C(=O)N1CC(n2cc(C(N)=O)nn2)C1 (stereo not shown) [5-F21, 1-[1-(2-chloropropanoyl)azetidin-3-yl]-1H-1,2,3-triazole-4-carboxamide]	106.011%
CC(C)c1ccc(CCNC(=O)CCl)cc1 [6-I16, 2-chloro-N-{2-[4-(propan-2-yl)phenyl]ethyl}acetamide]	115.756%
